PMC7948425
Results are given in words; binding and its absence hold for the method and conditions named. Binding seen in cells or lysates may run through a third protein. Some binding calls cover weakened binding; strength is not graded here. Where a sequence is shown, tags or fusion partners need not be part of it.

Amino acid sequences for entries named in this document (tags omitted).
UniProt Q9UQE7: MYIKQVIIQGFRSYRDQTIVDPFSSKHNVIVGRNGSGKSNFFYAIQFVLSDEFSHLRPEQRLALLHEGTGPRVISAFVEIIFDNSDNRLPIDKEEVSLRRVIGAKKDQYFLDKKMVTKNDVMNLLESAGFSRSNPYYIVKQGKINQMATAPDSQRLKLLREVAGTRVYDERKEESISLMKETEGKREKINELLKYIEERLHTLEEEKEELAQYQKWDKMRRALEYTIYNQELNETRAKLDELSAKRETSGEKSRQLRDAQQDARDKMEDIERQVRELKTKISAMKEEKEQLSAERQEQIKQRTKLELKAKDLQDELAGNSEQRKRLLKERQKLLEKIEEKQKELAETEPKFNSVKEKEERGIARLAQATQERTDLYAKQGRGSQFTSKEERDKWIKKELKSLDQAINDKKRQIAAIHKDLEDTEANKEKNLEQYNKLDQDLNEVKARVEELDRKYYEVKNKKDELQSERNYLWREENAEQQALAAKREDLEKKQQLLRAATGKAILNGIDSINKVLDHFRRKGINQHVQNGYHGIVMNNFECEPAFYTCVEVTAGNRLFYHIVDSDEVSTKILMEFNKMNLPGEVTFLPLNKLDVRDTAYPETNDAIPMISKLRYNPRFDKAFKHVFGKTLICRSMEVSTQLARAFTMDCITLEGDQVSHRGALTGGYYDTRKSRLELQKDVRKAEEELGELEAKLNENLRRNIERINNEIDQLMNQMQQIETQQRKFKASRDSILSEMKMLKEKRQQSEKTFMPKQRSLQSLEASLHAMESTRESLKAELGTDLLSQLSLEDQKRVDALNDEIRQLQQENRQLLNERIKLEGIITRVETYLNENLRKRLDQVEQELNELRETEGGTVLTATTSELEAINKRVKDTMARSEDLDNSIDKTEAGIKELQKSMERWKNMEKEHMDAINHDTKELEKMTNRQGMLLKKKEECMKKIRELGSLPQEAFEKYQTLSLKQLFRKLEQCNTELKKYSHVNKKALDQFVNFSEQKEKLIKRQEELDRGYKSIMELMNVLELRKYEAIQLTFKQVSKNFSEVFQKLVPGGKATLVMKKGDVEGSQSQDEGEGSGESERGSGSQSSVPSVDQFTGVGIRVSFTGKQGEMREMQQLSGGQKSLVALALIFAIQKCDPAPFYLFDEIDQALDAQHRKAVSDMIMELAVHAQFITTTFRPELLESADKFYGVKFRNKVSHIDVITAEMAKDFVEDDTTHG

T1: Myc-USP13 ΔUBA (deletion of amino acids 654–766) (human) (UniProt Q92995)
T1 sequence: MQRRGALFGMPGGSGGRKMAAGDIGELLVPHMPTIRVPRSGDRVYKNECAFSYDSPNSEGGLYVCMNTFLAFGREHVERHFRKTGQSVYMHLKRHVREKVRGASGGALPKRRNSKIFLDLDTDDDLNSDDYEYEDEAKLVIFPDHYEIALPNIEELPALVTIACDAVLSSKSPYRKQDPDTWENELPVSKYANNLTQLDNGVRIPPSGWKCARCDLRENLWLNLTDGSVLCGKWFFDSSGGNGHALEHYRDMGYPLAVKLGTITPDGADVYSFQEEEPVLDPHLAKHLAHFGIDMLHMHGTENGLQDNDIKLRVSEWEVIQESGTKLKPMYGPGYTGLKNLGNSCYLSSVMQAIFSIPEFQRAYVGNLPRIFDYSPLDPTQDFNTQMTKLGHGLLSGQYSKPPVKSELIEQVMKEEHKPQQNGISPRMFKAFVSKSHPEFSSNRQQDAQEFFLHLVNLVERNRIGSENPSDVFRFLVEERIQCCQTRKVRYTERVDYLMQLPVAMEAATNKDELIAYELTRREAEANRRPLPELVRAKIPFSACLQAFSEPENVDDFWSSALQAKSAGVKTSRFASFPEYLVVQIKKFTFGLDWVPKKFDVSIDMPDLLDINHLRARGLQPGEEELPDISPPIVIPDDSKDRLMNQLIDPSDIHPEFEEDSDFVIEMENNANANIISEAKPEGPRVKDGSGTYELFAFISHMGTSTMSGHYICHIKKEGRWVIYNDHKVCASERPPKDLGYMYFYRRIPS

T2: Myc-USP13 ΔZnF (deletion of amino acids 210–265) (human) (UniProt Q92995)
T2 sequence: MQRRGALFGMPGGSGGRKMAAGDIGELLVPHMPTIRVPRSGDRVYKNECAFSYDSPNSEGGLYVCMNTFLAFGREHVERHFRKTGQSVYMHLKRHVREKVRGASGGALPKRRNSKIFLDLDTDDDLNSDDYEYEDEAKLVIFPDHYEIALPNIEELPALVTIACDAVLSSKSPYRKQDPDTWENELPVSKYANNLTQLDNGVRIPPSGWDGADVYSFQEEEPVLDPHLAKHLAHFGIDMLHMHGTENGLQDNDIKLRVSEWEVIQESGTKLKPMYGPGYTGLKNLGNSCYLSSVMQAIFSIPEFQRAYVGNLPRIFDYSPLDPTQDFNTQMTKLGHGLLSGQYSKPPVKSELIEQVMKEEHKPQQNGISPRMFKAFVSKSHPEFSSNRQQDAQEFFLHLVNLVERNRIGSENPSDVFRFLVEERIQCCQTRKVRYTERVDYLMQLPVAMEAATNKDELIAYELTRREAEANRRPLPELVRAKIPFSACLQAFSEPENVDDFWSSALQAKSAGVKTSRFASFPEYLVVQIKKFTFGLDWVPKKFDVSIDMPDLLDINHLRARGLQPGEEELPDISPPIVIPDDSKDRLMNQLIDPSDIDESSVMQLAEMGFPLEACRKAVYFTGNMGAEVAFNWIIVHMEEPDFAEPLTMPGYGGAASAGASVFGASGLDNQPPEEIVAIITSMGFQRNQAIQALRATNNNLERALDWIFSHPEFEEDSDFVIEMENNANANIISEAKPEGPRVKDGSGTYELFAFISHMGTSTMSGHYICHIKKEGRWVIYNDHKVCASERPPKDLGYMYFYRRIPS

T3: Myc-USP13 (ectopically expressed human USP13 with an amino-terminal myc epitope tag) (human) (UniProt Q92995)
T3 sequence: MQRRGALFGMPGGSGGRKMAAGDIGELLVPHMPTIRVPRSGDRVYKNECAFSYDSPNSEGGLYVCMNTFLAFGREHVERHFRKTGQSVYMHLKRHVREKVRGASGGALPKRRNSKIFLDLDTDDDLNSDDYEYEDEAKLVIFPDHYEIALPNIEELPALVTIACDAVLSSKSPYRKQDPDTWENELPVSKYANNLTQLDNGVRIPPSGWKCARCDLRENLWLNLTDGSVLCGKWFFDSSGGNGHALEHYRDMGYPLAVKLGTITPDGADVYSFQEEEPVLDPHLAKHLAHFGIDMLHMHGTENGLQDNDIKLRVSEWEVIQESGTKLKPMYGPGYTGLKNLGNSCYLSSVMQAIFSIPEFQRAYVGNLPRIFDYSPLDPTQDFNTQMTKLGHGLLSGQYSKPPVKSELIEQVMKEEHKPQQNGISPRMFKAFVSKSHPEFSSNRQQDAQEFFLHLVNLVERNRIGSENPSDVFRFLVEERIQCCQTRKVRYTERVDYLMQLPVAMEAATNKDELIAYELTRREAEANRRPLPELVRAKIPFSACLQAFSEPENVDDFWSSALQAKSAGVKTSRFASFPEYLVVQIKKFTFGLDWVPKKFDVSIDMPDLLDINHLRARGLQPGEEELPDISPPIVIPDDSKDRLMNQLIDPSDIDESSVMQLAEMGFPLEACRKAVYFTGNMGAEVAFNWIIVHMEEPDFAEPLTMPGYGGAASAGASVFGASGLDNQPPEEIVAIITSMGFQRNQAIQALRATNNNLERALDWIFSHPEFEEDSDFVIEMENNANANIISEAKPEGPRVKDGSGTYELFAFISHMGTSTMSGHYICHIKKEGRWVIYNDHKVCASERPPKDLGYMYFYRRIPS

T4: Myc-USP13 derivative comprising only the “USP” portion of the protein (human) (UniProt Q92995)
T4 sequence: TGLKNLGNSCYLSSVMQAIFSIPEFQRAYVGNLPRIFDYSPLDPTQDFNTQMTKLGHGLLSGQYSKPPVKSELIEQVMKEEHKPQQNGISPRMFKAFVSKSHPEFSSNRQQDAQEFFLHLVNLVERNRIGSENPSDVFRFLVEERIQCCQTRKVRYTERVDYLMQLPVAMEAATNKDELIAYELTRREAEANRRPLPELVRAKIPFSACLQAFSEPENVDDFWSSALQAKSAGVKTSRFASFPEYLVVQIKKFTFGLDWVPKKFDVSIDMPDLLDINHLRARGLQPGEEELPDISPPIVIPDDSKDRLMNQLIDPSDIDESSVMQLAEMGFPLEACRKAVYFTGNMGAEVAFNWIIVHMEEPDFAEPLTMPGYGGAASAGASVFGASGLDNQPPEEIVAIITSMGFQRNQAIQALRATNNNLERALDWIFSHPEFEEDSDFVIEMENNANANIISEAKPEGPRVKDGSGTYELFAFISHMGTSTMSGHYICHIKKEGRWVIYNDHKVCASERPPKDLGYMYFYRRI

B1: STAG2, endogenous (protein, UniProt Q8N3U4 1-1231)
chain: MIAAPEIPTDFNLLQESETHFSSDTDFEDIEGKNQKQGKGKTCKKGKKGPAEKGKGGNGGGKPPSGPNRMNGHHQQNGVENMMLFEVVKMGKSAMQSVVDDWIESYKHDRDIALLDLINFFIQCSGCKGVVTAEMFRHMQNSEIIRKMTEEFDEDSGDYPLTMAGPQWKKFKSSFCEFIGVLVRQCQYSIIYDEYMMDTVISLLTGLSDSQVRAFRHTSTLAAMKLMTALVNVALNLSINMDNTQRQYEAERNKMIGKRANERLELLLQKRKELQENQDEIENMMNAIFKGVFVHRYRDAIAEIRAICIEEIGIWMKMYSDAFLNDSYLKYVGWTMHDKQGEVRLKCLTALQGLYYNKELNSKLELFTSRFKDRIVSMTLDKEYDVAVQAIKLLTLVLQSSEEVLTAEDCENVYHLVYSAHRPVAVAAGEFLYKKLFSRRDPEEDGMMKRRGRQGPNANLVKTLVFFFLESELHEHAAYLVDSMWDCATELLKDWECMNSLLLEEPLSGEEALTDRQESALIEIMLCTIRQAAECHPPVGRGTGKRVLTAKEKKTQLDDRTKITELFAVALPQLLAKYSVDAEKVTNLLQLPQYFDLEIYTTGRLEKHLDALLRQIRNIVEKHTDTDVLEACSKTYHALCNEEFTIFNRVDISRSQLIDELADKFNRLLEDFLQEGEEPDEDDAYQVLSTLKRITAFHNAHDLSKWDLFACNYKLLKTGIENGDMPEQIVIHALQCTHYVILWQLAKITESSSTKEDLLRLKKQMRVFCQICQHYLTNVNTTVKEQAFTILCDILMIFSHQIMSGGRDMLEPLVYTPDSSLQSELLSFILDHVFIEQDDDNNSADGQQEDEASKIEALHKRRNLLAAFCKLIVYTVVEMNTAADIFKQYMKYYNDYGDIIKETMSKTRQIDKIQCAKTLILSLQQLFNEMIQENGYNFDRSSSTFSGIKELARRFALTFGLDQLKTREAIAMLHKDGIEFAFKEPNPQGESHPPLNLAFLDILSEFSSKLLRQDKRTVYVYLEKFMTFQMSLRREDVWLPLMSYRNSLLAGGDDDTMSVISGISSRGSTVRSKKSKPSTGKRKVVEGMQLSLTEESSSSDSMWLSREQTLHTPVMMQTPQLTSTIMREPKRLRPEDSFMSVYPMQTEHHQTPLDYNRRGTSLMEDDEEPIVEDVMMSSEGRIEDLNEGMDFDTMDIDLPPSKNRRERTELKPDFFDPASIMDESVLGVSMF

Columns and labels:
[1] = target: T1, Myc-USP13 ΔUBA (deletion of amino acids 654–766) (human); experiment: co-IP; myc antibody on whole cell lysates of 293T cells transfected with Myc-USP13 constructs; Western blot with myc and SMC3 antibodies
[2] = target: T2, Myc-USP13 ΔZnF (deletion of amino acids 210–265) (human); experiment: as above
[3] = target: T3, Myc-USP13 (ectopically expressed human USP13 with an amino-terminal myc epitope tag) (human); experiment: as above
[4] = target: T4, Myc-USP13 derivative comprising only the “USP” portion of the protein (human); experiment: as above
[5] = target: SMC3, endogenous (human (endogenous in HCT116, 293T, HeLa, RPE-hTERT)) (UniProt Q9UQE7); experiment: co-IP; SMC3 antibody (or IgG control) on whole cell lysates (500 μg) of 293T, HCT116, HeLa and RPE-hTERT cells, TBS with 0.1% NP-40, 4 °C overnight, protein A/G agarose; Western blot with USP13 and STAG2 antibodies; also 293T cells treated 20 h with DMSO, hydroxyurea, RO-3306 or nocodazole
[6] = target: SMC3, endogenous (human (endogenous in HCT116, 293T, HeLa, RPE-hTERT)) (UniProt Q9UQE7); experiment: co-IP; SMC3 antibody on soluble and chromatin fractions of 293T cells; Western blot with STAG2 and USP13 antibodies

Row | binding [1] | binding [2] | binding [3] | binding [4] | binding [5] | binding [6] | Molecule
1 | no binding | binds | binds | no binding |  |  | SMC3, endogenous (from UniProt Q9UQE7 1-1217)
2 |  |  |  |  | binds | binds | B1
